In all, about 310,000 compounds went through this assay and about 14,000 (4.5%) showed an effect of 50% or more. The effect is printed as a negative number. The list shows a part of the results.
target: human ether-à-go-go-related gene (hERG) potassium channel (human, UniProt Q12809); assay: primary screen, population patch clamp on CHO cells stably expressing hERG
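Also: peak tail current of the secondary pulse compared with the same well before compound.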

Sequence of human ether-à-go-go-related gene (hERG) potassium channel (Q12809 whole entry, looked up): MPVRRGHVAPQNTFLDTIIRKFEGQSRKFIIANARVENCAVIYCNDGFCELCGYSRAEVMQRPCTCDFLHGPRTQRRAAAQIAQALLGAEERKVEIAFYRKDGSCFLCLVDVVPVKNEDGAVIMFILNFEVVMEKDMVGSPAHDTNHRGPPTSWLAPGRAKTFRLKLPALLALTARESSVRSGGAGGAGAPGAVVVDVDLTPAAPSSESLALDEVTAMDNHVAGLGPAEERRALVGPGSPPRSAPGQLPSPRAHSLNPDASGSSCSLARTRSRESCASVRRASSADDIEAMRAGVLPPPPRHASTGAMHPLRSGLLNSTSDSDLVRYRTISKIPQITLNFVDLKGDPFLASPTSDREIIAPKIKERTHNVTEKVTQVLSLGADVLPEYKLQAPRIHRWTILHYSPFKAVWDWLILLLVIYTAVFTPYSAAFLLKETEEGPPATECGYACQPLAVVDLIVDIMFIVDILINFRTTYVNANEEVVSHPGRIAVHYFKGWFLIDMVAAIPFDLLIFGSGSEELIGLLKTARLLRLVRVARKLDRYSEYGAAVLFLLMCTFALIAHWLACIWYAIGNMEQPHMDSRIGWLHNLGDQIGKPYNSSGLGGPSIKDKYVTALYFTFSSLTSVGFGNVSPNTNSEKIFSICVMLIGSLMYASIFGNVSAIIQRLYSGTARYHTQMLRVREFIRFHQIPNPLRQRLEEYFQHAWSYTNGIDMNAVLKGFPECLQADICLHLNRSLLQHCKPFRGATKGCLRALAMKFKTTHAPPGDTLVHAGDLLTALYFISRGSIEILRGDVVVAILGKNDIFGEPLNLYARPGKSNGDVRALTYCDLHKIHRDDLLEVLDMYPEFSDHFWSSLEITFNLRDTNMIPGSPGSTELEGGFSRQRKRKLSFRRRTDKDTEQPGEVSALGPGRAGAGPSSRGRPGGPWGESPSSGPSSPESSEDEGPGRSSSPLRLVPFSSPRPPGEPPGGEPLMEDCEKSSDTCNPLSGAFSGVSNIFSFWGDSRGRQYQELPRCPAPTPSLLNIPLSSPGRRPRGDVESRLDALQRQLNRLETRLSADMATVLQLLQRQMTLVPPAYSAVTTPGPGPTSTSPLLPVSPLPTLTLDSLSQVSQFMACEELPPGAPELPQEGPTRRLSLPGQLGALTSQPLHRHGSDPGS

SMILES | hERG current change (%, negative = inhibition) at 10uM
CCc1c(C)nc(N)n2c(SCC(=O)Nc3ccccc3OC)nnc12 | 11.8%
CCn1cc(C(=O)N[C@@H](C)C(=O)NCCO)c(=O)c2cc3c(cc21)OCO3 | 8.64%
CCn1c(SCc2ccccc2)nc2cc(OC)c(OC)cc2c1=O | 21.4%
CCCS(=O)(=O)N1CCCC(C(=O)N2CCC3(CC2)OCCO3)C1 (stereo not shown) | 15.7%
CCOc1ccccc1C(C(=O)NC1CCCC1)N(C(=O)c1csnn1)C1CC1 (stereo not shown) | 13.6%
CC(C)CNC(=O)c1ccccc1NC(=O)/C=C/c1cccc([N+](=O)[O-])c1 | 21.3%
c1ccc(-c2ccc(SCc3cccnc3)nn2)nc1 | 8.9%
Cc1c(NC(=S)Nc2ccccc2C(F)(F)F)cccc1[N+](=O)[O-] | 8.27%
CCc1ccccc1NC(=O)COc1ccc2c(c1)OCO2 | -4.6%
Cc1ccc(OCC(=O)NCCc2nc3ccccc3[nH]2)c(C)c1 | -5.52%
CNC(=O)Cn1c(C)cc(=O)c2cccc(OC)c21 | 4.12%
CCOC(=O)C1=C(C)Nc2ncnn2C1c1cc(Br)ccc1F (stereo not shown) | 14%
CN(CC(=O)Nc1c(Cl)cccc1Cl)C(=O)CNC(=O)c1ccc2ccccc2c1 | 13.5%
O=C(Nc1ccnc(-c2cccnc2)n1)c1cccc(Cl)c1Cl | -10.1%
CCN(CC)C(=S)Nc1ccc(C(=O)OC)cc1 | 1.45%
O=C(c1ccc(C(=O)N2CCCCCC2)cc1)N1CCCCCC1 | -1.85%
CC1CC(C)CN(CCC(=O)Nc2cccc(Cl)c2)C1 (stereo not shown) | -49.1%
Cc1c2cnn(CC(=O)N3CCC4(CC3)OCCO4)c(=O)c2c(C)n1Cc1ccccc1 | -0.415%
O=C(N/N=C/c1ccc(OC(F)F)cc1OC(F)F)c1ccc(Br)cc1 | -6.46%
Cc1ccc(S(=O)(=O)CCC(=O)OCC(=O)N2c3ccccc3NC(=O)C2(C)C)cc1 | 14%
Cc1oc(-c2cccc3ccccc23)nc1CN1CCN(c2ncnc3ccccc23)CC1 | -11.9%
CC(Sc1nnnn1-c1ccc(O)cc1)C(=O)NC1CCCCC1C (stereo not shown) | -9.23%

SMILES | hERG current change (%, negative = inhibition) at 10uM
CCC1=Nc2cc(C(=O)NCc3cccnc3)ccc2Sc2ccc(C)cc21 | -15%
O=C(CN(C(=O)C1CSC(=O)C1)c1ccccc1F)NCc1ccc2c(c1)OCO2 (stereo not shown) | -12.4%
Cc1cc(/C=C2\C(=O)NC(=O)N(Cc3ccccc3Cl)C2=O)c(C)n1-c1ccc(C(=O)O)cc1 | 46%
CCOc1ccc(C(=O)Nc2cccc(-c3nc4ccccc4[nH]3)c2C)cc1[N+](=O)[O-] | -39.1%
CCn1c(=O)cc(OCC(=O)N2CCCCCC2)c2ccccc21 | 3.9%
CCCCCC(=O)Nc1cc(S(=O)(=O)N2CCOCC2)ccc1N1CCCCC1 | -30.6%
c1ccc(CCN2CCN(c3ncnc4c3cnn4-c3ccccc3)CC2)cc1 | -19.8%
O=S(=O)(c1ccc2c(c1)nc1n2CCC1)N1CCOCC1 | -13.9%
COc1ccc(CNC(=O)CN2CCC(NC(=O)c3ccccc3C)CC2)cc1 | -39.6%
Cc1ccc(N/N=C/c2ccc(N3CCOCC3)cc2)cc1C | -5.47%
Cc1nn(C)c(C)c1C1C(C#N)=C(N)Oc2n[nH]c(C)c21 (stereo not shown) | -1.56%
COCCNC(C)C(=O)C12CC3CC(CC(C3)C1)C2.Cl (stereo not shown) | 3.94%
COc1ccc(-c2csc(N3N=C(C)C(C)C3=O)n2)cc1 (stereo not shown) | -2.16%
Cc1cc(OCC(=O)NC2CC2)c2c(C)cc(=O)oc2c1 | -12.5%
Cc1cccc(C(=O)Nc2nc3ccc(S(C)(=O)=O)cc3s2)c1 | 0.0902%
[O-]c1c[n+](-c2ccccc2)no1 | 15.7%
CCNC(=S)N=Nc1c(O)n(Cc2ccc(Cl)cc2)c2ccccc12 | -3.23%
C[n+]1cnc(-c2ccccc2)cc1-c1ccccc1.[I-] | -9.29%
CCNC(=S)N(CCCN(C)C)Cc1cc2cc3c(cc2[nH]c1=O)OCCO3 | 6.38%
Cc1nnc(SCC(=O)N(C2CCCCC2)C2CCS(=O)(=O)C2)n1C (stereo not shown) | 1.05%
CCOC(=O)C1CCN(C(=O)CCNC(=O)c2ccccc2OC)CC1 | 11.5%
CN(CC1CCN(CCc2cccc(C(F)(F)F)c2)CC1)C(=O)c1ccc(F)cc1 | -70.8%

SMILES | hERG current change (%, negative = inhibition) at 10uM
O=C(COC(=O)c1ccc(O)cc1O)NNC(=O)c1cccs1 | 6.45%
CC1(C)OC(=O)N(NCc2ccccc2)C1(C)O (stereo not shown) | 19%
O=C(Nc1cccc(Cl)c1)C1=Cc2cc(Cl)ccc2OC1 | 8.16%
COc1ccc(C2=CC(=O)C[C@H](c3ccc(Cl)cc3)C2)cn1 | -12.4%
CCN(CC(=O)NCCc1ccc(Cl)cc1)Cc1nc2ccccc2c(=O)[nH]1 | -53.3%
CCOC(=O)c1cc(C)nc(S(C)(=O)=O)c1C#N | 22.6%
COc1ccccc1NC(=S)N(CCCN1CCOCC1)Cc1ccccn1 | -14.3%
Cc1cccn2c(=O)c3cc(C(=O)NCc4ccco4)c(=N)n(CCOCCO)c3nc12 | -74.9%
CC(OC(=O)c1cc(S(=O)(=O)N2CCOCC2)ccc1F)C(=O)NC1CCCCC1C (stereo not shown) | 0.582%
O=[N+]([O-])c1cc(S(=O)(=O)NCCc2ccccn2)ccc1Cl | -21.8%
Cc1ccc(NC(=O)CN2CCC(NC(=O)c3cccc(F)c3)CC2)cc1C | -41.3%
Cc1cccc(OCCNC(=O)c2ccc(Cl)c(S(=O)(=O)NCc3cccnc3)c2)c1 | -32.8%
CC1CCN(CC(=O)Nc2ccccc2C#N)CC1 | 3.06%
COc1ccc(-c2[nH]ncc2CNC(C)c2ccccc2Cl)cc1F (stereo not shown) | -15.6%
COc1cc2nc(CN3CCOCC3)n(CC(=O)NCC(F)(F)F)c(=O)c2cc1OC | 5.18%
CC(C)C(=O)N1CCN(c2ccccc2NC(=O)c2ccco2)CC1 | -32.6%
CC(=O)c1cccc(S(=O)(=O)N2CCC(C(=O)N(C)Cc3ccc(Cl)s3)CC2)c1 | -25.3%
COC(=O)c1sccc1OC(C)C(C)=O (stereo not shown) | 1.88%
CN(Cc1ccccc1)S(=O)(=O)c1ccc(OCC(=O)NCc2ccncc2)cc1 | -53.6%
COc1ccc(S(=O)(=O)N2CCCC(C(=O)NCc3ccncc3)C2)cc1 (stereo not shown) | -19.4%
CC(=O)c1ccc(N2CCN(C(=O)C3(S(=O)(=O)c4ccc(Cl)cc4)CC3)CC2)cc1 | -51.8%
O=C(NCc1ccccc1)[C@H]1C[C@@H]1[C@H](NP(=O)(c1ccccc1)c1ccccc1)c1ccccc1 | 12.2%

SMILES | hERG current change (%, negative = inhibition) at 10uM
CCOc1cc(C(=O)N/N=C(\C)Cc2ccc(OC)cc2)cc(OCC)c1OCC | -3.15%
O=C1/C(=C/c2ccccc2)CCC1C1CCCC1 (stereo not shown) | 0.186%
Cc1nc(SC(C(=O)c2ccccc2)c2ccccc2)nc2ccccc12 (stereo not shown) | -0.605%
N#Cc1ccc(CSc2ccc(S(=O)(=O)N3CCCC3)cn2)cc1 | -67.2%
CC(C)N(CCNC(=O)c1nn(Cc2ccccc2)c(=O)c2ccccc12)C(C)C | -66.1%
CN1CCc2nc3sc(C(=O)NC4CC4)c(N)c3cc2C1 | 9.22%
O=C(Cc1c(O)c2ccccc2[nH]c1=O)NCc1ccccc1F | 3.31%
OCC1(CO)COC(c2ccccc2)=N1 | -1.57%
O=c1[nH]c(=S)n(CCC2=CCCCC2)c(O)c1C=NC1CCN(Cc2ccccc2)CC1 | -55%
CC(=O)Nc1nonc1-c1ccccc1 | -3.47%
COCc1ccc(-c2c(-c3cccc(OC)c3)sc3ccc(OC)cc23)cc1 | 15.3%
CCc1ccc(/C(C)=N/Nc2cc(Cl)nc(C)n2)cc1 | 7.05%
CCOC(=O)c1c(C)oc2ccc(O)c(CN3CCCCC3)c12 | -37.4%
CCOc1cccc(CN2CCCC(CNC(=O)c3cccc(OC)c3OC)C2)c1 (stereo not shown) | -9.11%
CCCCNC(=O)C1=C(N)C(C(=O)Nc2ccc(C)c(S(=O)(=O)N3CCCCC3)c2)SC1=Nc1ccc(C)cc1C (stereo not shown) | -1.93%
O=C(CCNC(=O)C1CCN(S(=O)(=O)c2ccccc2)CC1)Nc1cccc(C(F)(F)F)c1 | -45.1%
COc1cc(-c2noc(CCC(=O)NC3CCCCC3)n2)cc(OC)c1OC | 13.9%
CC1(O)CCN2C(=O)CCc3cccc1c32 (stereo not shown) | -9.44%
NC(=O)C1(N2CCCCC2)CCN(C2CC(=O)N(CCc3ccccc3)C2=O)CC1 (stereo not shown) | -0.618%
Cn1c(=O)c2c(nc(N3CCc4ccccc4C3)n2Cc2ccccc2F)n(C)c1=O | -20.7%
Cc1cccc2cc(-c3ccccc3)c(-c3ccccc3)c[n+]12.[Br-] | -45.4%
O=C1COc2ccc3ccccc3c2CN1 | 6.37%
